Measurements: the RNAGym collection of RNA variant scans (doi:10.7554/elife.90254)
The source gives no read counts; variants with many changes may rest on few reads.

B1: LINE1-full (parent)
chain: UACGUAGGUGGUUUUCCCCUGAUAGUGCUAAGGGGGCCUGGAAGUUUGGACUGGGCAGAGCUCAACACAGCGUGGCAAAGUGGCUGUGGCUAGACUGCCUCUCUGGAUUCCUCGUCACUCAGCAGGGCAUCUCUGAGAGAAAUGCC

Variants of: B1
Test: self-cleavage, relative activity (ratio to wild type); higher = more cleavage; in vitro, sequencing; the parent is a self-cleaving ribozyme

Row | Variant | self-cleavage
1 | A6G U62A U87C U112C | 0
2 | A64U A77G A121U | 0.66
3 | U12C C38A U91A U102C | 0.93
4 | U26C U62C U87A U102A A117U | 0
5 | A30U G60A U119A A124G | 0.01
6 | U47A G80A A142G | 1.66
7 | U15C G58U A65U U85A G125U | 0.04
8 | U26C U39C U100C C123U A124G | 1.45
9 | A24G U108C C113A | 1.84
10 | U14C A31U A50U G82A G86A U100A A124C A140G | 0.05
11 | U9A A43U A79U A92G | 0.24
12 | U9C U20A A43G | 1.04
13 | U13C U52C G70U | 0.1
14 | U23C U132C C146U | 1
15 | U39G U46C C116U U130C | 1.92
16 | C71A U104C A121G | 0.77
17 | G32C G54A U115C | 0.8
18 | U13C U15C G88A | 0
19 | U1A A78U A79G A141G | 1.7
20 | U62C U104A C116G A140G | 0.05
21 | U15C G75U U85C U91A | 0.17

Row | Variant | self-cleavage
22 | U45C U108C A117G | 0
23 | U14C U81A C146U | 1.13
24 | U12C U26C U45C | 0.88
25 | A67G C68A G127A | 0.01
26 | A65G U130C A138G | 0
27 | A22G A65G G75A A107G | 0.09
28 | U100C G105A A124U | 2.16
29 | U1G U15C A78U A107U | 1.56
30 | U20C U45C A57U C63U U134A A140G | 0.06
31 | A69G C71U U104C | 0.21
32 | U12A U26C A30G A43U A64U U115C | 1.65
33 | G27A A77G U87C | 0.2
34 | A22G U46C C98G | 0.25
35 | G4A G8A U87C U130C | 0.61
36 | A6G U14C U62C | 0.18
37 | U15C U26A U143G | 1.88
38 | A6G U14A U47C C61G A64G U100C A129U | 0.77
39 | U20C G49A A117G | 0.48
40 | U9A A42U U47C | 1.46
41 | U46G A65G U119A | 0.08
42 | G58A U62A A64C G86A A142G | 0.01

Row | Variant | self-cleavage
43 | U26C U109C A117G | 0.57
44 | A2G A67U A94G A129G | 0
45 | C37A U102C A107G U112A | 0.98
46 | U12G U26C U39A U47C A92G G105A A129G A142G | 0.73
47 | A67G A77U A136G | 0.18
48 | U13C A69G C95A | 0.06
49 | A2G U73A U109A | 0.8
50 | G8A G35U G54A | 0.64
51 | U23A A50U A65U A107G A121G | 0.12
52 | A67G C76A U100A | 0.22
53 | U81A U112C A124G U130C A142G | 1.64
54 | U87C A129G U143A | 0.49
55 | C3U U15C C19U U23C | 0.35
56 | U5C U52C A92G | 0
57 | G7U G8U A129U | 1.99
58 | A24G A94U U102C | 0.3
59 | A77G U115A G139U | 2.06
60 | U20A G40U A50G | 2.12
61 | U12C A57G A129G | 1.53
62 | A30G U102C A136U | 0.37
63 | U14C U26A U85C | 0.32

Row | Variant | self-cleavage
64 | A31G U45G C63U | 0.54
65 | A6U U73A A124G | 1.35
66 | A50G A59G A67G C98U | 0.1
67 | A77U C118U A142G | 1.26
68 | U15C U104C G105A | 2.21
69 | U13C U20A U108C | 1.56
70 | U81C U96C U132C | 0
71 | U12G A43G G72A | 0.71
72 | A2C U15A C17U G122U A140G | 0.78
73 | U45C A67G A107G | 0.28
74 | A78G C113U U130C | 1.42
75 | G4A A42G U45C A69U A94U | 0.05
76 | A31G G55C U119C C123U | 0.18
77 | A107U A138G U143A | 1.53
78 | C56U A65G A138U | 0.04
79 | A2G U52C U119C | 1.72
80 | A69U C90G A107G A124G | 0
81 | U15A U87C U108G | 0.35
82 | U20C G21A A64G | 0.45
83 | A43G A57G A94G | 0.17
